Test results from PubChem BioAssay AID1030 (National Center for Advancing Translational Sciences (NCATS), 2008).
About 16,000 (7.3%) of roughly 220,000 compounds were called active. The shares of active, inactive and inconclusive entries below differ from those in the screen. Calls come from the whole dose curve; as a rule, active = well fitted inhibition curve with a large enough effect (not every such curve was filed as active); inconclusive = small, poorly fitted or top-dose-only effect, or another doubt; inactive = no such curve, though single readings can be large or run the other way. Potencies of inconclusive entries are left out as doubtful fits.

Each compound was assayed against Aldehyde dehydrogenase 1A1 (Homo sapiens) (UniProt P00352) (assay: qHTS Assay for Inhibitors of Aldehyde Dehydrogenase 1 (ALDH1A1)). Settings: Purified ALDH1A1, NADH fluorescence, propionaldehyde substrate; series mostly up to 75.3 µM.
Sequence of UniProt P00352 (P00352 whole entry, looked up): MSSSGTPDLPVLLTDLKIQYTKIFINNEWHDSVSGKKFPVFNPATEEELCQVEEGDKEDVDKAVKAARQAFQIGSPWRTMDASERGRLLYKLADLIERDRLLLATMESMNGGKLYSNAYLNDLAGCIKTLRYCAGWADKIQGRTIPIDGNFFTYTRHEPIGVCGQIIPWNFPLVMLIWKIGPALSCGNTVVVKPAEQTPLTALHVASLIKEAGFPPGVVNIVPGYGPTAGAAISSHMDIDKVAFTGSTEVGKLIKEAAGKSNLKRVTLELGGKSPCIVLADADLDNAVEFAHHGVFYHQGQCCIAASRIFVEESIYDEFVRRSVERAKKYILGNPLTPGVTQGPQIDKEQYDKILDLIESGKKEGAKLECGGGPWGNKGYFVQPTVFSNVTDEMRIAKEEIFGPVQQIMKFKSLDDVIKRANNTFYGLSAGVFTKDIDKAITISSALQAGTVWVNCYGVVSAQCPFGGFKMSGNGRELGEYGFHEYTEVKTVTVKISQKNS
Potency is the fitted concentration of half-maximal effect; tags give direction and shape of the fitted curve.

Q: With `O=C(O)c1ccc(NC(=S)NC(=O)c2cccc(COc3ccccc3)c2)cc1` as the compound, how does the Potency read?
A: active: 3.55 µM

Q: How did the Potency turn out when `O=C(Cn1c(=O)oc2cc(S(=O)(=O)N3CCCC3)ccc21)N1CCN(C2CCCCC2)CC1` was run?
A: inconclusive [inhibitor, single point]

Q: How did the Potency turn out when `COc1ccc(C(CCNC(C)c2ccccc2)c2ccc(F)cc2)cc1` (centres undefined) was run?
A: inconclusive [inhibitor, single point]

Q: With `COc1c(Cl)cc(-c2noc(C)c2C(=O)NC(C)C)cc1Cl` as the compound, how does the Potency read?
A: inactive

Q: How did the Potency turn out when `O=C(Nn1cnc2ccccc2c1=O)c1ccccc1Cl` was run?
A: inconclusive [inhibitor, single point]

Q: Which Potency does the source give for `CCOc1ccc(/C=C(\C#N)C(=O)Nc2cccnc2)cc1` here?
A: inconclusive [inhibitor, single point]

Q: With `Cc1ccc(SCC(=O)Nc2ccc(-c3nc4ccccc4[nH]3)cc2)cc1` as the compound, how does the Potency read?
A: inconclusive [inhibitor, single point]

Q: For `Nc1cnn(Cc2ccccc2F)c1`, which Potency is on record?
A: active: 14.1 µM

Q: How did the Potency turn out when `O=C(c1cccs1)N1CCN(Cc2nc3ccccc3c(=O)[nH]2)CC1` was run?
A: inconclusive [inhibitor, single point]

Q: For `O=c1c2ccccc2c(-c2cccc(C(F)(F)F)c2)nn1-c1ccccc1`, which Potency is on record?
A: inconclusive [inhibitor, single point]

Q: For `CCCCN(C(=O)Cn1nnc2ccccc21)C(C(=O)NCc1ccco1)c1ccncc1` (centres undefined), which Potency is on record?
A: inconclusive [inhibitor, single point]

Q: `Cc1cccc(-n2nnnc2SCC(=O)Nc2cccc(S(N)(=O)=O)c2)c1` was tested. Which Potency did it give?
A: active: 7.94 µM

Q: Which Potency does the source give for `COc1ccc(C(=O)NCCn2cc(SCC(=O)Nc3cc(C)on3)c3ccccc32)cc1OC` here?
A: inconclusive [inhibitor, partial curve, poor fit]

Q: With `C=CCn1c(C)cc(/C([O-])=C(/C(=S)Nc2ccc(OC(F)F)cc2)[n+]2ccc(N(C)C)cc2)c1C` as the compound, how does the Potency read?
A: inconclusive [inhibitor, single point]

Q: For `CCCCn1c(SCC(=O)N(CC)C2CCS(=O)(=O)C2)nc2cc(S(N)(=O)=O)ccc21` (centres undefined), which Potency is on record?
A: inconclusive [inhibitor, single point]

Q: For `CC(=O)c1ccc(NC2c3ncccc3C(=O)N2Cc2ccc(F)cc2)cc1` (centres undefined), which Potency is on record?
A: inconclusive [inhibitor, full curve, poor fit]

Q: `Cc1ccc2c(c1Br)/C(=N/N1C(=O)c3ccccc3C1=O)C(=O)N2` was tested. Which Potency did it give?
A: active: 0.751 µM

Q: How did the Potency turn out when `COc1ccc(S(=O)(=O)Nc2c(C)ccc3nsnc23)cc1OC` was run?
A: inconclusive [inhibitor, single point]

Q: How did the Potency turn out when `CCSC1=C(C#N)C(c2ccccc2Cl)C(C(=O)c2cccs2)C(O)(C(F)(F)F)N1` (centres undefined) was run?
A: active: 11.2 µM

Q: With `Cc1ccsc1/C=N/NC(=O)Cc1cccn1C` as the compound, how does the Potency read?
A: inconclusive [inhibitor, single point]

Q: With `CC(=O)OCc1c(F)c(F)c(-n2nc(C)cc2C)c(F)c1F` as the compound, how does the Potency read?
A: inactive

Q: With `c1ccc(Cn2c(-c3cccs3)nc3nc4ccccc4nc32)cc1` as the compound, how does the Potency read?
A: inconclusive [inhibitor, full curve]

Q: With `O=C(CSc1ncn(-c2ccccc2)n1)NCc1ccccc1` as the compound, how does the Potency read?
A: inactive

Q: For `CCOC(=O)N1CCC(NCCNC(=O)c2ccco2)CC1`, which Potency is on record?
A: inconclusive [inhibitor, single point]

Q: `O=S(=O)(CCc1ccccc1)c1nnnn1-c1ccc(F)cc1Br` was tested. Which Potency did it give?
A: inactive

Q: How did the Potency turn out when `Cc1c(C(=O)NN)nc2ccccn12` was run?
A: active: 4.47 µM

Q: `CNC(=S)N1N=C(c2ccc(C)cc2)CC1c1cc(OC)ccc1OC` (centres undefined) was tested. Which Potency did it give?
A: inactive

Q: How did the Potency turn out when `CCOC(=O)C1CCCN(c2ncnc3c2cnn3-c2cccc(C)c2)C1` (centres undefined) was run?
A: inconclusive [inhibitor, single point]

Q: For `O=C(Cc1n[nH]c(=O)c2ccccc12)OCC(=O)c1ccc2c(c1)OCCO2`, which Potency is on record?
A: inactive

Q: For `Cc1ccc(C2C=NN(c3ccccc3)C2=O)cc1` (centres undefined), which Potency is on record?
A: inactive

Q: How did the Potency turn out when `CCC(=O)c1ccc(N2CCCCCC2)c(F)c1` was run?
A: inconclusive [inhibitor, single point]

Q: For `CC1=C(C(=O)OCC2CCCO2)C(c2ccccc2OC(C)C)C2=C(CC(c3ccco3)CC2=O)N1` (centres undefined), which Potency is on record?
A: inconclusive [inhibitor, partial curve]

Q: `CCN1CCN(C(=S)c2ccc(Cl)cc2)CC1` was tested. Which Potency did it give?
A: inconclusive [inhibitor, partial curve]

Q: `N#Cc1cccc(-n2nnnc2-c2ccc3c(c2)OCO3)c1` was tested. Which Potency did it give?
A: inconclusive [inhibitor, single point]

Q: For `CCOC(=O)c1cnc2nc(SC)nn2c1N`, which Potency is on record?
A: inactive

Q: For `O=C(N/N=C/c1sc(N2CCOCC2)nc1-c1ccccc1)c1ccc(O)cc1`, which Potency is on record?
A: inconclusive [inhibitor, single point]

Q: Which Potency does the source give for `Cc1onc(-c2c(Cl)cccc2Cl)c1C(=O)NCCc1ccc(S(N)(=O)=O)cc1` here?
A: inactive

Q: For `CCOc1ccc2c(C)cc(=O)oc2c1OCC`, which Potency is on record?
A: inconclusive [inhibitor, single point]

Q: `Nc1c(C(=O)NCCN2CCOCC2)c2nc3ccccc3nc2n1-c1cccc(F)c1` was tested. Which Potency did it give?
A: inconclusive [inhibitor, partial curve]

Q: For `c1ccc(OCCCc2nc(-c3ccccn3)no2)cc1`, which Potency is on record?
A: inconclusive [inhibitor, single point]

Q: With `CCCNc1ccc(C(=O)OCC)cc1[N+](=O)[O-]` as the compound, how does the Potency read?
A: inconclusive [inhibitor, single point]

Q: Which Potency does the source give for `Cc1cc(C)c2cc(CN(CCN(C)C)C(=O)Nc3ccccc3Cl)c(=O)[nH]c2c1` here?
A: inconclusive [inhibitor, single point]

Q: Which Potency does the source give for `CCS(=O)(=O)Nc1ccc(C2=NN(C(=S)Nc3ccccc3)C(c3ccco3)C2)cc1` (centres undefined) here?
A: inconclusive [inhibitor, single point]

Q: With `C1CN(CC23CC4CC(CC(C4)C2)C3)CCO1` as the compound, how does the Potency read?
A: inactive

Q: Which Potency does the source give for `Cc1ccc(Cl)cc1NC(=O)CSC(N)=O` here?
A: active: 1.58 µM

Q: `Cc1cc(=O)oc2c(CN3CC(C)OC(C)C3)c(O)c(Cl)cc12` (centres undefined) was tested. Which Potency did it give?
A: inconclusive [inhibitor, partial curve]

Q: `N#C/C(=C\c1ccccc1)C(=O)NC(=O)Oc1ccccc1` was tested. Which Potency did it give?
A: inactive

Q: Which Potency does the source give for `CN(C)CC(O)COc1cc2ccccc2cc1C(=O)N1CCCCC1` (centres undefined) here?
A: inactive

Q: For `C=CCn1c(-c2ccoc2C)n[nH]c1=S`, which Potency is on record?
A: inconclusive [inhibitor, single point]

Q: Which Potency does the source give for `COC(=O)CCC(=O)OC1(C)C(=O)C2=CN(Cc3ccco3)C(c3ccc(OC)cc3)=CC2=C(Br)C1=O` (centres undefined) here?
A: inconclusive [inhibitor, single point]

Q: With `COc1cc(NC(=O)c2ccc([N+](=O)[O-])o2)ccc1NC(=O)c1cccs1` as the compound, how does the Potency read?
A: inconclusive [inhibitor, single point]

Q: For `CN(C)S(=O)(=O)c1cccc(-n2sc3ccccc3c2=O)c1`, which Potency is on record?
A: active: 0.224 µM

Q: How did the Potency turn out when `COC(=O)c1c(NC(=O)CN2CCC3(O)CCCCC3C2c2ccc(OC)cc2OC)sc(C)c1C` (centres undefined) was run?
A: active: 2.51 µM

Q: With `Cn1c(=O)[nH]c(Nc2ccccc2)c([N+](=O)[O-])c1=O` as the compound, how does the Potency read?
A: inactive

Q: `O=S(=O)(c1ccc2ccccc2c1)N1CCN(C2CCN(Cc3ccccc3)CC2)CC1` was tested. Which Potency did it give?
A: inconclusive [inhibitor, single point]

Q: `COC(=O)c1cccc(NC(=O)c2cccnc2C(=O)O)c1C` was tested. Which Potency did it give?
A: inconclusive [inhibitor, full curve, poor fit]

Q: `CCOC(=O)/C(C#N)=C/c1cc(C)n(-c2ccc(Br)cc2)c1C` was tested. Which Potency did it give?
A: inactive

Q: With `Cc1cc([N+](=O)[O-])nn1CCCC(=O)Nc1cc(Cl)ccc1Cl` as the compound, how does the Potency read?
A: inactive

Q: `CCCc1cc(C(=O)N/N=C/c2ccc(C)o2)c2ccccc2n1` was tested. Which Potency did it give?
A: inactive

Q: How did the Potency turn out when `COc1ccc(C(=O)O)cc1NC(=S)NC(=O)c1ccc(-c2ccc(Cl)cc2)o1` was run?
A: inconclusive [inhibitor, single point]

Q: For `CC12CCC(C[N+](C)(C)C1)C2(C)C` (centres undefined), which Potency is on record?
A: inactive

Q: `O=C(Cc1cccc(C(F)(F)F)c1)NCc1ccc(Cl)cc1Cl` was tested. Which Potency did it give?
A: inactive

Q: For `Cc1cccc(NC(=O)C2C(c3ccccc3)C2(Cl)Cl)c1` (centres undefined), which Potency is on record?
A: active: 25.1 µM

Q: For `O=C(CN1CCCC1)N1c2ccccc2C=Cc2ccccc21`, which Potency is on record?
A: inactive

Q: `O=C(CCc1ccc(Oc2cc([N+](=O)[O-])cc([N+](=O)[O-])c2)cc1)N1CCCCC1` was tested. Which Potency did it give?
A: active: 4.47 µM

Q: `CCN1CCN(C(c2cccs2)C(C)NS(=O)(=O)c2ccccc2)CC1` (centres undefined) was tested. Which Potency did it give?
A: inactive

Q: Which Potency does the source give for `CCN(C(=O)CN1CCCCC1)C1(C)C(=O)c2ccccc2C1=O` here?
A: inactive

Q: Which Potency does the source give for `N#Cc1c(Sc2ncc(C(F)(F)F)cc2Cl)nsc1C/C=N\OCc1ccccc1Br` here?
A: active: 10 µM

Q: With `CCc1cccc(NC2c3ccccc3C(=O)N2c2ccc(C)cn2)c1` (centres undefined) as the compound, how does the Potency read?
A: inconclusive [inhibitor, partial curve]

Q: With `C=CC1=C(C)/C(=C/c2[nH]c(Cc3[nH]c(/C=C4\NC(=O)C(C)=C4C=C)c(C)c3CCC(=O)O)c(CCC(=O)O)c2C)NC1=O` as the compound, how does the Potency read?
A: inconclusive [inhibitor, single point]

Q: `N/C(=N\OC(=O)CC1CCCCC1)c1ccc([N+](=O)[O-])cc1` was tested. Which Potency did it give?
A: inconclusive [inhibitor, partial curve]

Q: For `COC(=O)c1ccc(C(NC(=O)OCc2ccccc2)/C(F)=C/[C@@H](C)C(=O)NCCN2CCOCC2)cc1` (some centres undefined), which Potency is on record?
A: inactive

Q: Which Potency does the source give for `Cc1ccc(-n2c(C)cc(/C=N/NC(N)=S)c2C)cc1` here?
A: inconclusive [inhibitor, single point]

Q: Which Potency does the source give for `CCC(=O)N(Cc1cc2cccc(C)c2[nH]c1=O)c1ccccc1OC` here?
A: inconclusive [inhibitor, partial curve]
